Reference: PubChem BioAssay AID624418 (National Center for Advancing Translational Sciences (NCATS), 2012)
About 530 (0.13%) of roughly 410,000 compounds were called active. The shares of active, inactive and inconclusive entries below differ from those in the screen. Calls follow the shape of the dose curve; as a rule, active = well fitted inhibition curve with a large enough effect; inconclusive = small, poorly fitted or top-dose-only effect, or another doubt; inactive = no such curve, though single readings can be large or run the other way. Where the call is inconclusive, the potency comes from a doubtful curve fit.

assay: qHTS of GLP-1 Receptor Inverse Agonists: Cytotox Screen; conditions: HEK293 cAMP-luciferase reporter cells, luminescence, 24 h; series mostly up to 38.3 µM
Outline: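 To flag toxic compounds, the library was rerun on cells for 24 hr at 37 deg C and 5% CO2. Viability-linked luminescence was captured 12 min after adding luciferase detection reagent.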
Potency is read from the fitted curve at half-maximal effect.

Structure (SMILES) | Potency
c1ccc(CN2CCC(N=C3NN=C(c4ccc5c(c4)OCCO5)CS3)CC2)cc1 | inconclusive: 28.2 µM [inhibitor, single point]
COc1ccc(OCCn2c(NC(=O)c3ccc(OC)cc3)nc3ccccc32)cc1 | inactive
COc1cccc(-c2cn(C[C@H]3CC[C@@H]([C@@H]4CC[C@H](Cn5cc(-c6cccc(OC)c6)nn5)O4)O3)nn2)c1 | inconclusive: 4.47 µM [inhibitor, full curve, poor fit]
C/C(=N\Nc1nc(C)cc(-c2ccccc2)n1)c1cccc(N)c1 | inconclusive: 14.1 µM [inhibitor, partial curve, poor fit]
Cc1c(N=C2C=C(Br)C(=O)C(Br)=C2)c(=O)n(-c2ccccc2)n1C | inconclusive: 28.2 µM [inhibitor, single point]
COc1ccccc1NC(=O)C1=C(C)Nc2nc(SC)nn2C1c1ccccc1Cl (configuration not stated) | inactive
COc1ccc(/C=C2\SC(=S)N(CCC(=O)NCCc3ccc(O)cc3)C2=O)cc1 | inactive
COc1ccc(OC)c(NC(=O)C2CCCN(S(=O)(=O)c3ccc4c(c3)CCCC(=O)N4)C2)c1 (configuration not stated) | inactive
Cc1cc(NC(=O)CSc2nnc(-c3ccccc3)o2)no1 | inconclusive: 11.2 µM [inhibitor, partial curve, poor fit]
CCOC(=O)c1ccc(C(=O)NNC(=O)C2C3C=CC(C3)C2C(=O)O)cc1 (configuration not stated) | inconclusive: 7.08 µM [inhibitor, partial curve, poor fit]
COc1cccc(-c2cc(C(F)(F)F)nc(NCCc3ccc(OC)c(OC)c3)n2)c1 | inactive
O=C(c1cc(COc2c(F)cccc2F)on1)N1CCN(C2CCCCC2)CC1 | inactive
CCCCNC(=O)O[C@H]1C[C@@H]2CCN3C(=O)CCC(C)(C)[C@H](C1)[C@H]23 | inconclusive: 0.501 µM [inhibitor, full curve, poor fit]
Cc1c(C2(O)CCCCC2)[nH]c2cc(C(F)(F)F)ccc12 | inconclusive: 2.24 µM [inhibitor, partial curve, poor fit]
CN1CCN(CC(=O)Nc2c(C(=O)c3ccccc3)oc3ccccc23)CC1 | inactive
COc1cccc2c1C(=O)c1c(O)c3c(c(O)c1C2=O)C[C@@](O)(C(=O)CO)C[C@@H]3O[C@H]1C[C@H](N)[C@@H](O)[C@H](C)O1 | inconclusive: 4.47 µM [inhibitor, partial curve]
CS(=O)(=O)NNC(=O)c1sccc1OCc1ncc(C(F)(F)F)cc1Cl | inconclusive: 0.501 µM [inhibitor, full curve, poor fit]
Cc1ccc(-n2c(-c3ccc(Br)cc3)c[n+]3c2CCc2ccc4cccnc4c2-3)cc1 | inconclusive: 3.16 µM [inhibitor, full curve]
COc1cc(C(=O)NC2CCN(C)CC2)ccc1Nc1ncc2c(n1)N(C1CCCCC1)CCC(=O)N2C | inconclusive: 2.82 µM [inhibitor, partial curve, poor fit]
CCO[C@@H]1OC(C(=O)O)=C[C@H](C2CC2)[C@H]1CCCO | inconclusive: 28.2 µM [inhibitor, single point]
CCOC(=O)c1[nH]c2ccccc2c1NC(=O)c1ccccc1OCC | inconclusive: 10 µM [inhibitor, partial curve, poor fit]

Structure (SMILES) | Potency
Fc1ccc2[nH]c3c(N4CCN(Cc5ccc6c(c5)OCO6)CC4)ncnc3c2c1 | inconclusive: 28.2 µM [inhibitor, single point]
O=C(Nc1ccc2c(c1)CCCN2C(=O)c1cccs1)c1cccc(C(F)(F)F)c1 | inconclusive: 28.2 µM [inhibitor, partial curve, poor fit]
O=C(CCN1C(=O)NC2(CCCC2)C1=O)Nc1ccc(-c2nc3ccccc3s2)cc1 | inconclusive: 28.2 µM [inhibitor, single point]
O=C(Nc1ccccc1F)c1nc(S(=O)(=O)Cc2ccccc2F)ncc1Cl | inconclusive: 15.8 µM [inhibitor, single point]
Cc1c(C(=O)Nc2ccc3c(c2)OCCO3)sc2nc(-c3ccccc3)cn12 | inconclusive: 35.5 µM [inhibitor, partial curve, poor fit]
Cc1cccc(N2CCN(C(=O)c3ccc4nc(-c5ccco5)c(-c5ccco5)nc4c3)CC2C)c1 (configuration not stated) | inactive
c1ccc(CCNc2nc(-c3ccccn3)nc3ccccc23)cc1 | inconclusive: 0.891 µM [inhibitor, full curve]
Clc1ccc(-n2nnnc2-c2cnc(-c3ccccn3)nc2-c2cccs2)cc1 | inconclusive: 22.4 µM [inhibitor, single point]
COc1ccc(OCc2nc3c4cc(OC)c(OC)cc4nc(=S)n3[nH]2)cc1 | inconclusive: 0.501 µM [inhibitor, full curve, poor fit]
Cn1c(SCC(=O)NCc2ccc3c(c2)OCO3)nnc1-c1cc2ccccc2cc1O | inconclusive: 5.01 µM [inhibitor, partial curve, poor fit]
CCc1ccc(OCC(=O)NC2CCCCC2)c(Br)c1 | inactive
O=C(NC(=S)Nc1ccc(N2CCOCC2)c(Cl)c1)c1cccs1 | inconclusive: 12.6 µM [inhibitor, single point]
COc1ccc(OC)c2nc3c(C(=O)NCCN(C)C)cccc3nc12 | active: 7.08 µM
C=CC[C@@H](CC(=O)N(CCO)Cc1ccccc1)C(=O)N[C@@H](COC(=O)[C@@H](CC=C)Cc1ccc(F)cc1)Cc1c[nH]c2ccccc12 | inconclusive: 28.2 µM [inhibitor, single point]
COc1ccc(C(=O)Oc2cccc(/C=N/NC(N)=S)c2)cc1 | inconclusive: 28.2 µM [inhibitor, single point]
CC(C)c1ccc(CN2CCN(C(=O)CCl)CC2)cc1 | inconclusive: 11.2 µM [inhibitor, single point]
NNC(=O)C(=O)Nc1ccc(O)cc1 | inactive
CSCCC(NS(=O)(=O)c1ccc2c(c1)OCCO2)C(=O)N(C)Cc1ccc(F)cc1 (configuration not stated) | inconclusive: 10 µM [inhibitor, single point]
S=c1[nH]nc(CCc2ccccc2)n1-c1ccccc1 | inconclusive: 28.2 µM [inhibitor, single point]
O=C(CSc1nc2ccccc2c(=O)n1CCCN1CCOCC1)c1c[nH]c2ccccc12 | inconclusive: 11.2 µM [inhibitor, single point]
Cc1ccc(NC(=O)c2nc(S(C)(=O)=O)ncc2N(Cc2ccco2)Cc2ccccc2F)c(C)c1 | inactive

Structure (SMILES) | Potency
O=C(CSc1nc(-c2ccccc2)c(-c2ccccc2)[nH]1)Nc1ccc2c(c1)OCO2 | inconclusive: 28.2 µM [inhibitor, single point]
CNC(=S)N/N=C/c1cccc(OCc2ccccc2F)c1 | inconclusive: 28.2 µM [inhibitor, single point]
O=C(Nc1ccc(C(F)(F)F)cc1)c1cc(S(=O)(=O)NC2CCCCCC2)ccc1F | inconclusive: 28.2 µM [inhibitor, single point]
Cc1ccccc1S(=O)Cc1ccc(C(=O)NC2CCCCCC2)o1 (configuration not stated) | inactive
COc1cccc(-c2sc3ccccc3c2-c2ccc(OCCN(C)C)cc2)c1 | inconclusive: 11.2 µM [inhibitor, partial curve, poor fit]
CCN(CC)CCNC(=O)c1ccc(N2CCCCC2)c(NS(=O)(=O)c2ccc(C)cc2)c1 | inconclusive: 0.794 µM [inhibitor, full curve, poor fit]
COc1ccc(C(=O)/C(C#N)=N/Nc2cccc([N+](=O)[O-])c2)cc1 | inconclusive: 7.94 µM [inhibitor, partial curve, poor fit]
COc1ccc(OC)c(S(=O)(=O)N2CCNCC2)c1 | inconclusive: 0.501 µM [inhibitor, full curve, poor fit]
COc1ccc(C(=O)c2ccc(N(C)C)cc2)c(OC)c1 | inconclusive: 2.24 µM [inhibitor, full curve]
CC(C)(C)NNC(=S)Nc1cccc(C(F)(F)F)c1 | inconclusive: 2.51 µM [inhibitor, partial curve, poor fit]
Cc1cc(S(=O)(=O)N(Cc2ccccc2Cl)c2ccc3c(c2)CCC3)ccc1-n1cnnn1 | inconclusive: 31.6 µM [inhibitor, single point]
COc1ccccc1C/C(N)=N/OC(=O)c1cccs1 | inconclusive: 22.4 µM [inhibitor, single point]
CCOC(=O)c1ccccc1NS(=O)(=O)c1ccc(OC)cc1 | inconclusive: 28.2 µM [inhibitor, single point]
CC1CC2=C(NC(=S)NC2c2ccc(F)cc2)/C(=C/c2ccc(F)cc2)C1 (configuration not stated) | inactive
CCCCN1CC(c2nc3ccccc3n2CCCCOc2ccccc2C)CC1=O (configuration not stated) | inconclusive: 28.2 µM [inhibitor, single point]
COc1ccc(CCC(C)NCCc2ccc(Cl)cc2Cl)cc1 (configuration not stated) | inconclusive: 31.6 µM [inhibitor, partial curve, poor fit]
Cc1ccc(S(=O)(=O)Nc2cc(C)cn(Cc3ccc(F)cc3)c2=O)cc1 | inconclusive: 12.6 µM [inhibitor, single point]
COc1ccc(NC(=O)CN(C)C(=O)c2cc3c(s2)CCC3)cc1 | inactive
CCCCc1ccc(NC(=S)NCc2ccc(OC)cc2)cc1 | inconclusive: 10 µM [inhibitor, single point]
CCOc1ccc(C2c3c(-c4cc(C)ccc4O)n[nH]c3C(=O)N2Cc2cccnc2)cc1OCC (configuration not stated) | inactive
